From PMC4336329 (PLoS ONE, 2015)
Hit rate of the full screen: of about 310,000 compounds, about 14,000 (4.5%) showed an effect of 50% or more. Effects have a minus sign here. The list shows a part of the results.

What follows are compounds tested against human ether-à-go-go-related gene (hERG) potassium channel (human, UniProt Q12809) (assay: primary screen, population patch clamp on CHO cells stably expressing hERG).
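Also: peak tail current of the secondary pulse compared with the same well before compound.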

Chain of human ether-à-go-go-related gene (hERG) potassium channel (Q12809 whole entry, looked up): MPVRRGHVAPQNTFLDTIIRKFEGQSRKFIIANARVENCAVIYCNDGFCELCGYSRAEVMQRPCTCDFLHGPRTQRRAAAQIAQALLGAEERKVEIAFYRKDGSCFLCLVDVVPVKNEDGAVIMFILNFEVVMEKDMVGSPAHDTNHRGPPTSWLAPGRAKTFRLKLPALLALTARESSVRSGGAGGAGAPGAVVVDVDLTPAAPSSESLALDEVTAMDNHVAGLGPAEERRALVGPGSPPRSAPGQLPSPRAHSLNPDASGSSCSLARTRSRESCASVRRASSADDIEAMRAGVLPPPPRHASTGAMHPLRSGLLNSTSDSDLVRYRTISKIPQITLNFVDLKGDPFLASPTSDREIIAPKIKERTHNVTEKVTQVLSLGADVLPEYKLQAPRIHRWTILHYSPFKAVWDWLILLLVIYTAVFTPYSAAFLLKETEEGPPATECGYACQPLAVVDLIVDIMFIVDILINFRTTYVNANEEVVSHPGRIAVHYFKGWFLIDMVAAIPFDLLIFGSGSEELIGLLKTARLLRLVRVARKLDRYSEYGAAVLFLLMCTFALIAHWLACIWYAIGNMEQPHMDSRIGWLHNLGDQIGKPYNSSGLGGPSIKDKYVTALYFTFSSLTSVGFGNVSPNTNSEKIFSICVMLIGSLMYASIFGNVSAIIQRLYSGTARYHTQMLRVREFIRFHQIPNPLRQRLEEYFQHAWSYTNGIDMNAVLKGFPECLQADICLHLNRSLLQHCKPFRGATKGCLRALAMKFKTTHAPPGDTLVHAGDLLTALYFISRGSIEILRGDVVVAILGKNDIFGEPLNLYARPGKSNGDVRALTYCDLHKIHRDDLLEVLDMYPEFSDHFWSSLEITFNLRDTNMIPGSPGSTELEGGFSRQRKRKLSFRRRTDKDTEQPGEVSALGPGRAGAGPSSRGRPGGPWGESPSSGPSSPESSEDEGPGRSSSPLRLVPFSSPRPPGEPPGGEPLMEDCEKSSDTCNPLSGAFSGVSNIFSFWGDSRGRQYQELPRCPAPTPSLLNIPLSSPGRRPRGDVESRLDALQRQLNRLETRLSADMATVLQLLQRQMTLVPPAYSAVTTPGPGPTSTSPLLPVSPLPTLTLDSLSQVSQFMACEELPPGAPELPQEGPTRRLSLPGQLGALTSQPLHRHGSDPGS

Point of comparison: `COc1ccc2cc3cc(C(=O)NCc4cccnc4)oc3nc2c1`, “hERG current change (%, negative = inhibition) at 10uM” value -1.38%. Against it:
- COc1ccccc1NS(=O)(=O)c1cc(NC(=S)NCC2CCCO2)ccc1C (centres unmarked) — higher, 14.4%
- CC(C)Oc1ccc(C(=O)NC2(C(F)(F)F)NC(=O)N(CCCc3ccccc3)C2=O)cc1 (centres unmarked) — lower, -14.6%
- CN(CC(=O)NC(c1ccccc1)c1ccccc1)Cc1nc2ccccc2c(=O)[nH]1 — lower, -37%
- O=C(Nc1ccccc1OC(F)F)c1ccc(S(=O)(=O)N2CCOCC2)cc1 — higher, 13.3%
- Cc1ccccc1OCC(=O)OCC(=O)c1c[nH]c2ccccc12 — higher, 12.3%
- OCc1nc2ccccc2n1CCc1ccccc1 — higher, 11.5%
- CCc1cccc(NC(=O)CCNS(=O)(=O)c2ccc3[nH]c(=O)oc3c2)c1 — higher, 17.4%
- O=C(COc1ccccc1)OCc1cc2ccccc2[nH]c1=O — lower, -4.79%
- COc1cc(C(C(=O)NC2CCCCC2)N(C(=O)Cc2c[nH]c3ccccc23)c2ccc(C)cc2)cc(OC)c1OC (centres unmarked) — higher, -0.359%
- COc1ccc(-c2ccc(NS(=O)(=O)c3cccc([N+](=O)[O-])c3)cc2)nn1 — higher, 3.99%
- NS(=O)(=O)c1ccc(CCNC2CC(=O)N(CCc3ccccc3)C2=O)cc1 (centres unmarked) — lower, -4.14%
- CCOc1ccc(-n2ccc(=O)c(C(=O)O)n2)cc1 — higher, -1.15%
- CCCN(CC(=O)Nc1ccccc1C)C(=O)c1ccc(C)c(S(=O)(=O)N2CCCCC2)c1 — lower, -11.3%
- COc1ccc(-c2oc3ncnc(N)c3c2-c2ccccc2)cc1 — higher, 6.52%
- COc1ccc(C(=O)NC(=S)Nc2ccc3[nH]c(=O)[nH]c3c2)cc1 — higher, 15.5%
- Cc1cccc(CNc2ncnc3ccc(-c4ccoc4)cc23)c1 — lower, -12.4%
- CCCn1nnc(NC(=O)c2cccc(OCC)c2)n1 — lower, -4.78%
- c1ccc(Cn2ncc3c(N4CCOCC4)ncnc32)cc1 — lower, -2.77%
- N#Cc1ccc(C23CC4(C2)[C@H](CN(P(=O)(c2ccccc2)c2ccccc2)[C@@H]4c2ccccc2)C3c2ccc(Cl)nc2)cc1 (some centres unmarked) — lower, -8%
- COc1cccc(OCC(=O)N(Cc2nc(-c3ccc(Cl)cc3)no2)C(C)C)c1 — lower, -13.7%
- O=C(CSc1nc(-c2ccccc2)c(-c2ccccc2)o1)Nc1nncs1 — higher, 4.9%
- O=P1(NCCCn2cc[n+](Cc3nc4ccccc4[nH]3)c2)C=C(c2ccccc2)OC(c2ccccc2)=C1.[Cl-] — lower, -63%
- CCNC(=O)CN(c1ccc(OC)c(OC)c1)S(=O)(=O)c1ccccc1 — higher, 6.54%
- O=S(=O)(NCCNc1nccc(C(F)(F)F)n1)c1ccccc1 — lower, -4.14%
- COc1ccc(N2CCN(C(=O)c3ccccc3NC(=O)c3ccccc3)CC2)cc1 — lower, -5.15%
- CCOc1ccc(C(=O)Nc2cccc(-c3ccc(N4CCOCC4)nn3)c2)cc1OCC — higher, 0.747%
- CCCOc1cc(N)ccc1C(=O)OCCN(CC)CC.Cl — lower, -18.9%
- Cc1ccnc(NC(=O)c2cccc(NC(=O)CC3SC(N4CCCCC4)=NC3=O)c2)c1 (centres unmarked) — lower, -23.6%
- CCOC(=O)C(NC(=O)CC)(Nc1cc(C)on1)C(F)(F)F (centres unmarked) — lower, -4.59%
- CN(C)S(=O)(=O)c1ccc(Cl)c(NC(=O)COC(=O)CN2C(=O)NC(C)(C)C2=O)c1 — higher, 1.87%
- O=C(NCc1ccccc1C(F)(F)F)C1CC(c2cc(C(F)(F)F)cc(C(F)(F)F)c2)=NO1 (centres unmarked) — higher, 12.9%
- O=C1C(=O)N(CCN2CCOCC2)C(c2ccccn2)/C1=C(/O)c1ccccc1 (centres unmarked) — higher, -1.23%
- CCCCC(=O)Nc1ccc(C(=O)NNC(=O)c2ccco2)cc1 — higher, 11.2%
- c1ccc(-c2nnc3sc(-c4cc5ccccc5o4)nn23)cc1 — higher, 15.1%
- COCC1CCCCN1Cc1cn(-c2ccccc2)nc1-c1ccc2c(c1)OCO2 (centres unmarked) — lower, -37.1%
- NC(=O)COc1ccc(/C=N/NS(=O)(=O)c2ccccc2)cc1 — higher, 13.7%
- CC1CCC(NC(=O)COC(=O)c2cccnc2Cl)CC1 (centres unmarked) — lower, -35.8%
- CCCNC(=O)c1nc(C)n(-c2cc(Cl)ccc2Cl)n1 — higher, -0.534%
- Cc1ccc(OCC(=O)OCC(=O)NC2CCCC2)cc1C — higher, 15.6%
- O=c1[nH]c2c(s1)C(c1ccccc1)C1C3CCC(C3)C1S2 (centres unmarked) — higher, 4.73%
- CC(=O)Nc1ccc(S(=O)(=O)N2CCN(c3cc(C)ccc3C)CC2)cc1 — lower, -9.12%
- Cl.Clc1cccc(OCCN2CCCC2)c1 — higher, 2.13%
- O=C(Nc1ccc(F)cc1Cl)C1CCN(C(=O)Nc2ccccc2)CC1 — higher, 3.16%
- Cc1cc(C(=O)NCCc2ccc(Cl)cc2)n(-c2ccccc2)n1 — higher, 3.38%
- COc1ccc(CC2(CO)CCN(S(=O)(=O)N(C)C)CC2)cc1 — higher, 9.82%
- CCOc1cc(C(=O)NCc2ccncc2)cc(OCC)c1OCC — higher, 2.4%
- CC1(C)CC(=O)C2=C(C1)Oc1ncn(CCO)c(=N)c1C2c1ccccc1 (centres unmarked) — lower, -35.3%
- CCc1nnc(NC(=O)/C=C/c2ccc(C)o2)s1 — lower, -13.9%
- COc1ccccc1C(=O)OCCCN=C1NS(=O)(=O)c2ccccc21 — higher, 9%
- Cc1cccc(C(=O)N[C@H](C(=O)Nc2nccs2)C(C)C)c1 — higher, 6.12%
- Cc1ccsc1/C=N/NC(=O)c1sccc1C — higher, 13.2%
- CCCCn1c(N)c(N(CCC(C)C)C(=O)c2cc(CC)c(C)s2)c(=O)[nH]c1=O — higher, 7.2%
- CC(=O)N1CC2(C)CN(C(C)=O)CC(C)(C1)C2=O — higher, 2.37%
- CCc1ccc(CNC(=O)CCC(=O)n2ncc3cc(C)ccc32)cc1 — higher, 19%
- COc1ccc(-c2nc(O)c3cnccn23)cc1 — higher, 14.1%
- O=C(Nc1ccsc1C(=O)O)c1ccccc1 — higher, 24.8%
- COc1ccc(NC(=O)CSC(C)c2nc3ccccc3c(=O)[nH]2)cc1 (centres unmarked) — higher, 9.38%
- CCOc1ccc(/C=N/NC(=S)Nc2c(C)cccc2C)cc1 — higher, 7.13%
- CCOC(=O)C1CCCN(c2c(NCc3ccco3)c(=O)c2=O)C1 (centres unmarked) — lower, -3.85%
- CCc1ccccc1N(CC(=O)NC1CCCC1)C(=O)CNC(=O)c1cccs1 — lower, -8.04%
- Cc1ccc(N=C2NC(=O)/C(=C/c3cccnc3)S2)cc1C — higher, 16%
- CCN(CC)CCN(C(=O)c1ccc(S(=O)(=O)N(C)C2CCCCC2)cc1)c1nc2ccc(OC)cc2s1.Cl — higher, 0.617%
- CCc1noc(C)c1C(=O)Nc1cccc2ncccc12 — higher, 20.1%
- Cn1ncc2c(Nc3ccc(-c4ccccc4)cc3)ncnc21 — higher, 6.9%
- COc1ccc(Cl)cc1N(CC(=O)NCC(C)C)S(=O)(=O)c1ccc(C)c([N+](=O)[O-])c1 — higher, 8.34%
- Cc1cccc(OC(C)C(=O)NC2CCS(=O)(=O)C2)c1C (centres unmarked) — higher, 2.9%
- Brc1ccccc1-c1nnc2sc(-c3ccc4c(c3)OCCO4)nn12 — lower, -8.44%
- O=C(COC(=O)CSCC(=O)N1CCCCC1)Nc1ccc(Cl)cc1 — lower, -10.9%
- O=S(=O)(Nc1ccc(F)cc1)c1ccc(NC(=S)Nc2ccccc2)cc1 — higher, 1.21%
- CCOC(=O)c1cncc(NC(=O)c2ccccc2)c1 — higher, 5.68%
- COc1ccccc1C(=O)Nc1ccc(S(=O)(=O)N2CCCCC2)cc1 — lower, -20.8%
- CCOC(=O)c1cnc(SCc2ccccc2)nc1N — lower, -7.85%
- CCOc1ccccc1CNC(=O)c1ccc(NC(=O)C2=C(C)OCCS2)cc1 — higher, 11.8%
- COC(=O)c1ccc(CN2CCC(n3nccc3NC(=O)C3CC3)CC2)cc1 — lower, -55.6%
- CCOC(=O)c1c(C)[nH]c(C)c1C(=O)CSc1ncccn1 — lower, -2.23%
- CCN(CC)C(=O)/C(=C\c1ccc(Br)cc1)NC(=O)c1ccccc1OC — lower, -27.3%
- Cn1nc(C(F)(F)F)c(C(=O)Nc2cccc(C(F)(F)F)c2)c1SCc1ccc(Cl)cc1 — lower, -8.86%
- COc1ccc(OC)c(Nc2nc3nonc3nc2N2CCCCC2)c1 — higher, 14.4%
- CC1CCCN(CCCNC(=O)c2ccc(CS(=O)(=O)Cc3cccc(Cl)c3)o2)C1 (centres unmarked) — lower, -40.7%
- COc1cccc(NC(=O)CCN2CCN(c3ccccc3F)CC2)c1 — lower, -12%
- COc1cc(C2=NOC(C(=O)Nc3c(C)n(C)n(-c4ccccc4)c3=O)C2)cc(OC)c1OC (centres unmarked) — lower, -3.79%
- NC(=O)c1ccc(NC(=O)COC(=O)/C=C/c2ccc3c(c2)OCO3)cc1 — higher, 11.8%
- O=C(NCCc1c[nH]c2ccccc12)C1Cc2ccccc2CN1C(=O)c1ccco1 (centres unmarked) — lower, -71.6%
- C[C@@]12CCC=C[C@H]1[C@H](c1ccc(C(F)(F)F)cc1)N(Cc1ccccc1)C2=O — higher, 12.2%
- CCNC(=O)NC(=O)COC(=O)CCCc1nc2ccccc2s1 — higher, 6.11%
